Measurements from the supplement of paper PMC10670038.
Where a name gives a salt, the structure may show the parent alone. ± gives the standard deviation of the averaged measurements. Over roughly 2,000 compounds, “relative cell viability vs DMSO, compound + 0.2 uM CuET” has its median near 1; the lowest 2% begin near 0.25. This is one part of the list.

These compounds were tested on TE10 (assay: relative cell viability vs DMSO, compound + 0.2 uM CuET (fraction); TE10 is an esophageal squamous carcinoma line; higher = less cytotoxic). Conditions: 2 µM; co-treatment: CuET (bis(diethyldithiocarbamate)copper) 0.2 uM; 48 h.
Description: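 TE10 ESCC cells (1,000/well, 384-well plates) were treated with Selleck bioactive library compounds at 2 uM combined with 0.2 uM CuET (copper diethyldithiocarbamate) for 48 h. Viability was read by CellTiter-Glo and expressed relative to DMSO wells. Two technical replicates (A, B).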
With `OC(c1cc(C(F)(F)F)nc2c(C(F)(F)F)cccc12)C1CCCCN1` (stereo not given) [Mefloquine HCl] the relative cell viability was 0.901 ± 0.04. Compound `O=C(c1ccc(/C=C/c2n[nH]c3ccccc23)cc1)N1CCNCC1` has a relative cell viability of 0.9262 ± 0.0063. Work on `C/C(=C\C(=O)Nc1ccccc1C(=O)O)c1ccc2ccccc2c1` yielded a relative cell viability of 1.14 ± 0.058. `Cc1ccc(-n2sc(=O)n(Cc3ccc(F)cc3)c2=O)cc1` gave a relative cell viability of 0.733 ± 0.23. `O=C(NCCN1CCOCC1)c1ccc(Cl)cc1` gave a relative cell viability of 1.39 ± 0.082. `Cc1cc(Cl)ccc1OCCCC(=O)NO` [Droxinostat] was tested, and the relative cell viability was 0.997 ± 0.063. In the case of `CN(C)CCOc1ccc(-c2nc(-c3ccncc3)c(-c3ccc4c(c3)CC/C4=N\O)[nH]2)cc1`, the relative cell viability is reported as 1.2261 ± 0.0011. Compound `C[C@H](Cc1cc2c(c(C(N)=O)c1)N(CCCO)CC2)NCCOc1ccccc1OCC(F)(F)F` [Silodosin] has a relative cell viability of 1.09 ± 0.15. `O=C(O)C1=CO[C@@H](O[C@@H]2O[C@H](CO)[C@@H](O)[C@H](O)[C@H]2O)[C@@H]2C(CO)=CC[C@H]12` [Geniposidic acid] was tested, and the relative cell viability was 0.949 ± 0.015. `O=C(Oc1ccccc1C(=O)O)c1ccccc1O` [Sasapyrine] showed a relative cell viability of 1.08 ± 0.022. In the case of `COc1c(C)c2c(c(O)c1C/C=C(\C)CCC(=O)O)C(=O)OC2` [Mycophenolic acid], the relative cell viability is reported as 0.825 ± 0.051. For `NS(=O)(=O)c1cc(Cl)c(Cl)c(S(N)(=O)=O)c1` [Dichlorphenamide], the relative cell viability was 1.02 ± 0.15. Work on `CS(=O)(=O)c1ccc(-c2cnc(N)c(C(=O)Nc3ccccc3)n2)cc1` yielded a relative cell viability of 0.761 ± 0.07. `O=c1c(-c2ccc(O)cc2)coc2cc(O)ccc12` [Daidzein] was tested, and the relative cell viability was 0.808 ± 0.11. `O=C(O)CCCCC(CCSCc1ccccc1)SCc1ccccc1` (stereo not given) showed a relative cell viability of 0.975 ± 0.14. `CC1(C)CC[C@]2(C(=O)O)CC[C@]3(C)C(=CC[C@@H]4[C@@]5(C)CC[C@H](O)C(C)(C)[C@@H]5CC[C@]43C)[C@@H]2C1` [Oleanolic Acid] gave a relative cell viability of 1.17 ± 0.044. `CC(C)(C)c1nc(-c2cccc(NS(=O)(=O)c3c(F)cccc3F)c2F)c(-c2ccnc(N)n2)s1` showed a relative cell viability of 0.78 ± 0.37. With `C[C@H]1O[C@@H](n2cc(F)c(=O)[nH]c2=O)[C@H](O)[C@@H]1O` [Doxifluridine] the relative cell viability was 1.08 ± 0.037. With `Cc1c(C(=O)Nc2ccc(N3CCC(N4CCOCC4)CC3)c(C#N)c2)cnn1-c1ccc(Cl)cc1` the relative cell viability was 0.874 ± 0.062. For `Nc1c(CC(=O)O)cccc1C(=O)c1ccc(Br)cc1` [Bromfenac Sodium], the relative cell viability was 1.14 ± 0.041. `Cc1cc(C)c2c(c1)[C@@H](N(Cc1cc(C(F)(F)F)cc(C(F)(F)F)c1)c1nnn(C)n1)CCCN2C[C@H]1CC[C@H](C(=O)O)CC1` showed a relative cell viability of 1.03 ± 0.038. Compound `CNC(=O)c1ccccc1Nc1nc(Nc2ccc(N3CCOCC3)cc2OC)ncc1Cl` has a relative cell viability of 0.942 ± 0.2. For `CC1=C(C(=O)Nc2cc3cn[nH]c3cc2F)C(c2ccc(C(F)(F)F)cc2)CC(=O)N1` (stereo not given), the relative cell viability was 1.11 ± 0.021. With `CCOC(=O)c1ncn2c1CN(C)C(=O)c1cc(F)ccc1-2` [Flumazenil] the relative cell viability was 1.18 ± 0.21. Work on `C=C1CC2(O)OC3(CC2C(C)C)C(C)CCC13` (stereo not given) [Curcumol] yielded a relative cell viability of 0.838 ± 0.028. In the case of `COC(=O)N[C@H](C(=O)N1CCC[C@H]1c1ncc(-c2ccc(-c3ccc(-c4cnc([C@@H]5CCCN5C(=O)[C@@H](NC(=O)OC)C(C)C)[nH]4)cc3)cc2)[nH]1)C(C)C`, the relative cell viability is reported as 0.863 ± 0.086. For `CCCCN(Cc1ccc(C(=O)NO)cc1)C(=O)Nc1ccccc1` [Nexturastat A], the relative cell viability was 0.837 ± 0.056. Compound `NCCCC[C@@H]1NC(=O)[C@@H](Cc2ccccc2)NC(=O)[C@H](CC(=O)O)NC(=O)CNC(=O)[C@H](CCCN=C(N)N)NC1=O` [Cyclo (-RGDfK)] has a relative cell viability of 1.21 ± 0.043. With `c1cc(-c2cnn3cc(-c4ccc(N5CCNCC5)cc4)cnc23)c2cccnc2c1` the relative cell viability was 0.182 ± 0.0055. For `COc1ccc(/C=C\c2cc(OC)c(OC)c(OC)c2)cc1O` [Combretastatin A4], the relative cell viability was 0.883 ± 0.051. Compound `CCCC1O[C@@H]2C[C@H]3[C@@H]4CCC5=CC(=O)C=C[C@]5(C)[C@H]4[C@@H](O)C[C@]3(C)[C@]2(C(=O)CO)O1` (stereo not given in full) [Budesonide] has a relative cell viability of 1.23 ± 0.077. For `CCOC(=O)[C@H](CCc1ccccc1)N[C@H]1CCCN2CCC[C@@H](C(=O)O)N2C1=O` [Cilazapril Monohydrate], the relative cell viability was 1.05 ± 0.041. Compound `COc1cc(C(C)=O)ccc1OCCCN1CCC(c2noc3cc(F)ccc23)CC1` [Iloperidone] has a relative cell viability of 1.06 ± 0.038. `COc1ccc(C(=O)CC(=O)c2ccc(C(C)(C)C)cc2)cc1` [Avobenzone] was tested, and the relative cell viability was 0.972 ± 0.046. With `CC(=O)OCC(=O)[C@@]1(O)[C@H](C)C[C@H]2[C@@H]3CCC4=CC(=O)C=C[C@]4(C)[C@@]3(F)[C@@H](O)C[C@@]21C` [Dexamethasone Acetate] the relative cell viability was 1.13 ± 0.098. For `COc1c(N2C[C@@H]3CCCN[C@@H]3C2)c(F)cc2c(=O)c(C(=O)O)cn(C3CC3)c12` [Moxifloxacin HCl], the relative cell viability was 1.28 ± 0.023. In the case of `NC1CC1c1ccc(-c2cccc(O)c2)cc1` (stereo not given), the relative cell viability is reported as 1.13 ± 0.036. Work on `COc1ccc2[nH]c([S@@+]([O-])Cc3ncc(C)c(OC)c3C)nc2c1` [Esomeprazole Magnesium] yielded a relative cell viability of 0.991 ± 0.073. Compound `COc1ccc2[nH]c([S@@+]([O-])Cc3ncc(C)c(OC)c3C)nc2c1` [Esomeprazole Sodium] has a relative cell viability of 1.1 ± 0.048. `CS(=O)(=O)N1CCN(Cc2cc3nc(-c4cccc5[nH]ncc45)nc(N4CCOCC4)c3s2)CC1` was tested, and the relative cell viability was 0.68 ± 0.0074. `CC(C)NCC(O)c1ccc(O)c(O)c1` (stereo not given) [Isoprenaline HCl] showed a relative cell viability of 1.19 ± 0.032. For `Nc1nc2c(ncn2COCCO)c(=O)[nH]1` [Aciclovir], the relative cell viability was 1.08 ± 0.072. Compound `CC#CC(=O)Nc1ccc2ncnc(Nc3cccc(Br)c3)c2c1` has a relative cell viability of 0.546 ± 0.034. `O=S(=O)(c1ccccc1)N(CC(F)(F)F)c1ccc(C(O)(C(F)(F)F)C(F)(F)F)cc1` was tested, and the relative cell viability was 1 ± 0.084. In the case of `C#C[C@]1(O)CC[C@H]2[C@@H]3CCc4cc(O)ccc4[C@H]3CC[C@@]21C` [Ethinyl Estradiol], the relative cell viability is reported as 1.06 ± 0.074. `COc1cc(F)c(F)c(Nc2ccc(I)cc2F)c1NS(=O)(=O)C1(C[C@H](O)CO)CC1` [Refametinib (RDEA119, Bay 86-9766)] showed a relative cell viability of 0.952 ± 0.1. With `CCOc1cc(CC(=O)N[C@@H](CC(C)C)c2ccccc2N2CCCCC2)ccc1C(=O)O` [Repaglinide] the relative cell viability was 1.15 ± 0.065. For `O=C(O)C(Cc1c[nH]c2ccccc12)N1C(=O)c2ccccc2C1=O` (stereo not given), the relative cell viability was 1.02 ± 0.12. `CCOC(=O)C1=C(C)NC(C)=C(C(=O)OCC)C1c1ccccc1/C=C/C(=O)OC(C)(C)C` [Lacidipine] was tested, and the relative cell viability was 0.785 ± 0.011. `COc1cc2/c(=N/c3ccc(Br)cc3F)nc[nH]c2cc1OCC1CCN(C)CC1` [Vandetanib (ZD6474)] gave a relative cell viability of 1.07 ± 0.026. With `CCN(CC)C(=S)SSC(=S)N(CC)CC` [Disulfiram] the relative cell viability was 0.0338 ± 0.0054. Work on `Cc1cc(OCCCS(C)(=O)=O)cc(C)c1-c1cccc(COc2ccc3c(c2)OC[C@H]3CC(=O)O)c1` yielded a relative cell viability of 1.1 ± 0.087. `C=C[C@@]1(C)CC(=O)[C@]2(O)[C@@]3(C)[C@@H](O)CCC(C)(C)[C@@H]3[C@H](O)[C@H](OC(C)=O)[C@@]2(C)O1` [Forskolin] showed a relative cell viability of 1.18 ± 0.025. With `O=C(CCCCCN1C(=O)c2cccc3cccc(c23)C1=O)NO` [Scriptaid] the relative cell viability was 0.331 ± 0.039. With `COc1ccc2c(c1)c(C1=C(c3c[nH]c4ccccc34)C(=O)NC1=O)cn2CCCN(C)C` the relative cell viability was 1.02 ± 0.045. `O=c1cc(-c2ccccc2)oc2cc(O)cc(O)c12` [Chrysin] was tested, and the relative cell viability was 1.03 ± 0.013. With `COC(=O)C1=C(C)NC(C)=C(C(=O)OC2CCCN(Cc3ccccc3)C2)C1c1cccc([N+](=O)[O-])c1` (stereo not given) [Benidipine HCl] the relative cell viability was 0.92 ± 0.033. With `CCNC(=O)CCC/C=C\C[C@@H]1[C@@H](/C=C/[C@@H](O)CCc2ccccc2)[C@H](O)C[C@@H]1O` [Bimatoprost] the relative cell viability was 1.4 ± 0.37. For `COc1ccc(S(=O)(=O)Nc2cccnc2Nc2ccc(O)cc2)cc1`, the relative cell viability was 0.856 ± 0.11. `O=C(Nc1cc2cc[nH]c2cn1)c1ccccc1` was tested, and the relative cell viability was 0.3986 ± 0.0004. `O=C1NCCc2[nH]c(-c3ccncc3)cc21` showed a relative cell viability of 1.07 ± 0.1. `O=C(/C=C/c1ccc(O)c(O)c1)c1ccc(O)cc1O` [Butein] was tested, and the relative cell viability was 0.864 ± 0.04. `O=C(CCCCCCC(=O)Nc1ccccc1)NO` [Vorinostat (SAHA, MK0683)] was tested, and the relative cell viability was 0.473 ± 0.055. With `Nc1nonc1C(=Nc1ccc(F)c(Cl)c1)NO` the relative cell viability was 1.15 ± 0.14. In the case of `NCCCCCNCC12CC3CC(CC(C3)C1)C2` [IEM 1754 dihydrobroMide], the relative cell viability is reported as 1.35 ± 0.15. Compound `CC1(C)O[C@@H]2C[C@H]3[C@@H]4CCC5=CC(=O)C=C[C@]5(C)[C@H]4[C@@H](O)C[C@]3(C)[C@]2(C(=O)CO)O1` [Desonide] has a relative cell viability of 1.08 ± 0.02. Work on `O=C(O)c1ccc2c(c1)nc(Nc1cccc(Cl)c1)c1ccncc12` [CX-4945 (Silmitasertib)] yielded a relative cell viability of 1.05 ± 0.025. Compound `O=C1CC(=O)c2c(Cl)c(Cl)c(Cl)c(Cl)c21` has a relative cell viability of 1.08 ± 0.056. `CCOC(=O)n1ccn(C)c1=S` [Carbimazole] gave a relative cell viability of 1.01 ± 0.12. `COc1cc(N2CCC(N)CC2)ccc1Nc1ncc(Cl)c(-c2c[nH]c3ccccc23)n1` gave a relative cell viability of 0.526 ± 0.02. Work on `Nc1[nH]nc2nnc(-c3c(-c4ccccc4)nn4ccccc34)cc12` yielded a relative cell viability of 1.07 ± 0.051. Compound `Cc1cc(NS(=O)(=O)c2ccc(N)cc2)no1` [Sulfamethoxazole] has a relative cell viability of 1.046 ± 0.0036. `COc1c/c(=C2\C=c3ccccc3=N2)[nH]/c1=C\c1[nH]c(C)cc1C` [Obatoclax Mesylate (GX15-070)] was tested, and the relative cell viability was 0.354 ± 0.035. In the case of `CC(C)N(CCCNC(=O)Nc1ccc(C(C)(C)C)cc1)C[C@H]1O[C@@H](n2cc(Br)c3c(N)ncnc32)[C@H](O)[C@@H]1O`, the relative cell viability is reported as 1.17 ± 0.032. `CC(C)(C)C(=O)C(Oc1ccc(Cl)cc1)n1ccnc1` (stereo not given) [Climbazole] showed a relative cell viability of 0.892 ± 0.06. `CC1(C)S[C@@H]2[C@H](NC(=O)C(C(=O)O)c3ccccc3)C(=O)N2[C@H]1C(=O)O` (stereo not given in full) [Carbenicillin disodium] showed a relative cell viability of 0.775 ± 0.36. `CN(C)/N=N/c1[nH]cnc1C(N)=O` [Dacarbazine] showed a relative cell viability of 1.14 ± 0.095. In the case of `CC1C(=O)OC2C(O)C34C5CC(C(C)(C)C)C36C(OC(=O)C6O)OC4(C(=O)O5)C12O` (stereo not given) [Ginkgolide B], the relative cell viability is reported as 1.1 ± 0.025. In the case of `Cn1cc(-c2ccc3ncc(Cc4ccc5ncccc5c4)n3n2)cn1`, the relative cell viability is reported as 1.09 ± 0.075. In the case of `Cc1onc(-c2c(Cl)cccc2Cl)c1C(=O)N[C@@H]1C(=O)N2[C@@H]1SC(C)(C)[C@@H]2C(=O)O` [Dicloxacillin Sodium], the relative cell viability is reported as 1.09 ± 0.02.
